Test results reported in publication PMC3562248.
No constants are given. Whether binding was seen depends on the method and setting. In cells and extracts the contact can be indirect.

B1: Sin3A (endogenous, HeLa), Q96ST3 1-1273 (protein)
chain: MKRRLDDQESPVYAAQQRRIPGSTEAFPHQHRVLAPAPPVYEAVSETMQSATGIQYSVTPSYQVSAMPQSSGSHGPAIAAVHSSHHHPTAVQPHGGQVVQSHAHPAPPVAPVQGQQQFQRLKVEDALSYLDQVKLQFGSQPQVYNDFLDIMKEFKSQSIDTPGVISRVSQLFKGHPDLIMGFNTFLPPGYKIEVQTNDMVNVTTPGQVHQIPTHGIQPQPQPPPQHPSQPSAQSAPAPAQPAPQPPPAKVSKPSQLQAHTPASQQTPPLPPYASPRSPPVQPHTPVTISLGTAPSLQNNQPVEFNHAINYVNKIKNRFQGQPDIYKAFLEILHTYQKEQRNAKEAGGNYTPALTEQEVYAQVARLFKNQEDLLSEFGQFLPDANSSVLLSKTTAEKVDSVRNDHGGTVKKPQLNNKPQRPSQNGCQIRRHPTGTTPPVKKKPKLLNLKDSSMADASKHGGGTESLFFDKVRKALRSAEAYENFLRCLVIFNQEVISRAELVQLVSPFLGKFPELFNWFKNFLGYKESVHLETYPKERATEGIAMEIDYASCKRLGSSYRALPKSYQQPKCTGRTPLCKEVLNDTWVSFPSWSEDSTFVSSKKTQYEEHIYRCEDERFELDVVLETNLATIRVLEAIQKKLSRLSAEEQAKFRLDNTLGGTSEVIHRKALQRIYADKAADIIDGLRKNPSIAVPIVLKRLKMKEEEWREAQRGFNKVWREQNEKYYLKSLDHQGINFKQNDTKVLRSKSLLNEIESIYDERQEQATEENAGVPVGPHLSLAYEDKQILEDAAALIIHHVKRQTGIQKEDKYKIKQIMHHFIPDLLFAQRGDLSDVEEEEEEEMDVDEATGAVKKHNGVGGSPPKSKLLFSNTAAQKLRGMDEVYNLFYVNNNWYIFMRLHQILCLRLLRICSQAERQIEEENREREWEREVLGIKRDKSDSPAIQLRLKEPMDVDVEDYYPAFLDMVRSLLDGNIDSSQYEDSLREMFTIHAYIAFTMDKLIQSIVRQLQHIVSDEICVQVTDLYLAENNNGATGGQLNTQNSRSLLESTYQRKAEQLMSDENCFKLMFIQSQGQVQLTIELLDTEEENSDDPVEAERWSDYVERYMNSDTTSPELREHLAQKPVFLPRNLRRIRKCQRGREQQEKEGKEGNSKKTMENVDSLDKLECRFKLNSYKMVYVIKSEDYMYRRTALLRAHQSHERVSKRLHQRFQAWVDKWTKEHVPREMAAETSKWLMGEGLEGLVPCTTTCDTETLHFVSINKYRVKYGTVFKAP
modifications: here or on the partner: C-terminal biotin
B2: MBD3, in vitro translated, O95983 1-291 (protein)
chain: MERKRWECPALPQGWEREEVPRRSGLSAGHRDVFYYSPSGKKFRSKPQLARYLGGSMDLSTFDFRTGKMLMSKMNKSRQRVRYDSSNQVKGKPDLNTALPVRQTASIFKQPVTKITNHPSNKVKSDPQKAVDQPRQLFWEKKLSGLNAFDIAEELVKTMDLPKGLQGVGPGCTDETLLSAIASALHTSTMPITGQLSAAVEKNPGVWLNTTQPLCKAFMVTDEDIRKQEELVQQVRKRLEEALMADMLAHVEELARDGEAPLDKACAEDDDEEDEEEEEEEPDPDPEMEHV
modifications: here or on the partner: 35S-methionine label; C-terminal biotin

Columns and labels:
[1] = biological target: T1, histone H3 N-terminal tail peptide (aa 1-21), unmodified, C-terminal biotin, P68431; experiment: pull-down; about 1 μg biotinylated histone tail peptide on streptavidin agarose beads, about 250 μg HeLa nuclear extract, 20 mM HEPES pH 7.9, 150 mM KCl, 0.1% NP-40, 3 h at 4°C; western blot; only the target purified; conditions: remark: other sources report otherwise
[2] = biological target: T1, histone H3 N-terminal tail peptide (aa …); experiment: pull-down; 35S-methionine-labelled in vitro translated protein (TNT reticulocyte lysate, diluted 1:10 with binding buffer) on immobilised H3 tail peptides; autoradiography; only the target purified; conditions: remark: other sources report otherwise

Binder | binding [1] | binding [2]
B1 | no binding | –
B2 | – | no binding
